# In all, about 2,900 compounds were measured (“NF-kB SEAP reporter activity, fold change vs agonist alone”: median about 0.99, highest 2% from about 2.6 on). The list shows a part of the results.
# Tests used:
# RAW-Dual [1] = experiment: NF-kB SEAP reporter activity, fold change vs agonist alone; cytotoxicity flag (confluency mask): cytotoxic (confluency <70% of control); higher = enhanced NF-kB activity
# Procedure, shortened: (§1)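 Library stock was pin-tooled at 50 nL into 384-well plates of RAW-Dual macrophages (50,000 cells/well, DMEM), followed 1 h later by a PRR agonist, and the cells were kept at 37 °C, 5% CO2. Supernatant collected after 20 hours was read for IRF by QuantiLuc luminescence and for NF-κB by QuantiBlue absorbance at 620 nm. Reporter activity is fold change over agonist-alone wells, and a well counted as cytotoxic when its IncuCyte confluency was below 70% of agonist controls in both mask sets.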
# RAW-Dual [2] = experiment: NF-kB SEAP reporter activity, fold change vs agonist alone; higher = enhanced NF-kB activity; details: library stock concentration (final ~1000-fold dilution): 10 mM
# Procedure, shortened: as §1
# RAW-Dual [3] = experiment: NF-kB SEAP reporter activity, fold change vs agonist alone; cytotoxicity flag (confluency mask): not cytotoxic; higher = enhanced NF-kB activity
# Procedure, shortened: as §1
# [4] = agonist: ODN 1826 (TLR9) 0.5 ug/mL
# [5] = agonist: Pam2CSK4 (TLR2/6) 0.1 ug/mL
# [6] = agonist: Pam3CSK4 (TLR2/1) 0.1 ug/mL
# [7] = cytotoxicity flag (confluency mask): cytotoxic (confluency <70% of control), agonist: Imiquimod (TLR7) […]
# [8] = cytotoxicity flag (confluency mask): cytotoxic (confluency <70% of control), agonist: MPLA (TLR4) […]
# [9] = cytotoxicity flag (confluency mask): not cytotoxic, agonist: Imiquimod (TLR7) […]
# [10] = cytotoxicity flag (confluency mask): not cytotoxic, agonist: MPLA (TLR4) […]
compound,measurement,setting,value
CC(C)[C@]12O[C@H]1[C@@H]1O[C@]13[C@]1(O[C@H]1C[C@H]1C4=C(CC[C@@]13C)C(=O)OC4)[C@@H]2O (library stock concentration (final ~1000-fold dilution): 10 mM),NF-kB SEAP reporter activity,RAW-Dual [1]; agonist: LPS (TLR4) 0.1 ug/mL,0.276
same,NF-kB SEAP reporter activity,RAW-Dual [1]; [4],0.21
same,NF-kB SEAP reporter activity,RAW-Dual [1]; [5],0.0742
same,NF-kB SEAP reporter activity,RAW-Dual [1]; [6],0.169
CC(C)[C@]12O[C@H]1[C@@H]1O[C@]13[C@]1(O[C@H]1C[C@H]1C4=C(CC[C@@]13C)C(=O)OC4)[C@@H]2O,NF-kB SEAP reporter activity,RAW-Dual [2]; [7],0.145
same,NF-kB SEAP reporter activity,RAW-Dual [2]; [8],0.263
COc1cc2c(c(OC)c1OC)-c1ccc(OC)c(=O)cc1C(NC(C)=O)CC2 (stereo not given),NF-kB SEAP reporter activity,RAW-Dual [2]; [9],2.62
same,NF-kB SEAP reporter activity,RAW-Dual [2]; [10],1.98
COc1cc2c(c(OC)c1OC)-c1ccc(OC)c(=O)cc1C(NC(C)=O)CC2 (stereo not given) (library stock concentration (final ~1000-fold dilution): 10 mM),NF-kB SEAP reporter activity,RAW-Dual [3]; agonist: LPS (TLR4) 0.1 ug/mL,4.93
same,NF-kB SEAP reporter activity,RAW-Dual [3]; [4],3.47
same,NF-kB SEAP reporter activity,RAW-Dual [3]; [5],2.44
same,NF-kB SEAP reporter activity,RAW-Dual [3]; [6],2.52
CC(C)(C)c1cc(C=C(C#N)C#N)cc(Br)c1O (library stock concentration (final ~1000-fold dilution): 10 mM),NF-kB SEAP reporter activity,RAW-Dual [1]; agonist: LPS (TLR4) 0.1 ug/mL,2.48
same,NF-kB SEAP reporter activity,RAW-Dual [1]; [4],1.29
same,NF-kB SEAP reporter activity,RAW-Dual [1]; [5],0.571
same,NF-kB SEAP reporter activity,RAW-Dual [1]; [6],0.667
CC(C)(C)c1cc(C=C(C#N)C#N)cc(Br)c1O,NF-kB SEAP reporter activity,RAW-Dual [2]; [7],2.04
same,NF-kB SEAP reporter activity,RAW-Dual [2]; [8],2.25
O=C(c1ccccc1O)c1[nH]c(Cl)c(Cl)c1-n1c(C(=O)c2ccccc2O)cc(Cl)c1Cl,NF-kB SEAP reporter activity,RAW-Dual [2]; [7],0.224
same,NF-kB SEAP reporter activity,RAW-Dual [2]; [8],0.3
O=C(c1ccccc1O)c1[nH]c(Cl)c(Cl)c1-n1c(C(=O)c2ccccc2O)cc(Cl)c1Cl (library stock concentration (final ~1000-fold dilution): 10 mM),NF-kB SEAP reporter activity,RAW-Dual [1]; agonist: LPS (TLR4) 0.1 ug/mL,0.156
same,NF-kB SEAP reporter activity,RAW-Dual [1]; [4],0.169
same,NF-kB SEAP reporter activity,RAW-Dual [1]; [5],0.0629
same,NF-kB SEAP reporter activity,RAW-Dual [1]; [6],0.113
CC(C)=CCCC1(C)C=Cc2c(O)c3c(c(CC=C(C)C)c2O1)OC12C(=CC4CC1C(C)(C)OC2(C/C=C(/C)C(=O)O)C4=O)C3=O (stereo not given),NF-kB SEAP reporter activity,RAW-Dual [2]; [9],0.882
same,NF-kB SEAP reporter activity,RAW-Dual [2]; [10],1.02
CC(C)=CCCC1(C)C=Cc2c(O)c3c(c(CC=C(C)C)c2O1)OC12C(=CC4CC1C(C)(C)OC2(C/C=C(/C)C(=O)O)C4=O)C3=O (stereo not given) (library stock concentration (final ~1000-fold dilution): 10 mM),NF-kB SEAP reporter activity,RAW-Dual [3]; agonist: LPS (TLR4) 0.1 ug/mL,0.196
same,NF-kB SEAP reporter activity,RAW-Dual [3]; [4],0.942
same,NF-kB SEAP reporter activity,RAW-Dual [3]; [5],0.45
same,NF-kB SEAP reporter activity,RAW-Dual [3]; [6],0.493
O=C(O)C(=O)c1cn(Cc2ccccc2)c2ccc(-c3ccc(OC(F)(F)F)cc3)cc12 (library stock concentration (final ~1000-fold dilution): 10 mM),NF-kB SEAP reporter activity,RAW-Dual [3]; agonist: LPS (TLR4) 0.1 ug/mL,1.12
same,NF-kB SEAP reporter activity,RAW-Dual [3]; [4],0.948
same,NF-kB SEAP reporter activity,RAW-Dual [3]; [5],0.917
same,NF-kB SEAP reporter activity,RAW-Dual [3]; [6],0.841
O=C(O)C(=O)c1cn(Cc2ccccc2)c2ccc(-c3ccc(OC(F)(F)F)cc3)cc12,NF-kB SEAP reporter activity,RAW-Dual [2]; [9],0.977
same,NF-kB SEAP reporter activity,RAW-Dual [2]; [10],1.04
CC12CCC3C(CCC45OC4C(O)=C(C#N)CC35C)C1CCC2O (stereo not given),NF-kB SEAP reporter activity,RAW-Dual [2]; [9],0.843
same,NF-kB SEAP reporter activity,RAW-Dual [2]; [10],0.861
CC12CCC3C(CCC45OC4C(O)=C(C#N)CC35C)C1CCC2O (stereo not given) (library stock concentration (final ~1000-fold dilution): 10 mM),NF-kB SEAP reporter activity,RAW-Dual [3]; agonist: LPS (TLR4) 0.1 ug/mL,0.913
same,NF-kB SEAP reporter activity,RAW-Dual [3]; [4],0.786
same,NF-kB SEAP reporter activity,RAW-Dual [3]; [5],0.677
same,NF-kB SEAP reporter activity,RAW-Dual [3]; [6],1.11
c1ccc2c(c1)Nc1ccccc1S2,NF-kB SEAP reporter activity,RAW-Dual [2]; [9],0.939
same,NF-kB SEAP reporter activity,RAW-Dual [2]; [10],1.04
c1ccc2c(c1)Nc1ccccc1S2 (library stock concentration (final ~1000-fold dilution): 10 mM),NF-kB SEAP reporter activity,RAW-Dual [3]; agonist: LPS (TLR4) 0.1 ug/mL,1.08
same,NF-kB SEAP reporter activity,RAW-Dual [3]; [4],0.935
same,NF-kB SEAP reporter activity,RAW-Dual [3]; [5],0.808
same,NF-kB SEAP reporter activity,RAW-Dual [3]; [6],1.03
O=c1c2ccccc2[se]n1-c1ccccc1,NF-kB SEAP reporter activity,RAW-Dual [2]; [9],0.298
same,NF-kB SEAP reporter activity,RAW-Dual [2]; [10],0.545
